Hit rate of the full screen: of about 43,000 compounds, about 200 (0.47%) were called active. About 12% were inconclusive and are not listed. Calls come from the whole dose curve; as a rule, active = well fitted cell-killing curve with a large enough effect; inconclusive = small, poorly fitted or top-dose-only effect, or effect the other way; inactive = flat fitted curve, though single readings scatter. The list shows a part of the results.
% is set by controls: 0 for no effect and ±100 for the full control effect.

This assay can be described thus: Cell viability qHTS assay in S16 Pmp22-F2sN cells. Note: nearly all actives have a fitted effect of over 65% in size. To be noted: S16 Pmp22-F2sN Schwann cells (luciferase reporters placed in the Pmp22 gene) viability, CellTiter-Glo, 24 h; series mostly up to 57.5 µM; activity change, negative = cytotoxicity: at the top concentration. The essentials:
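S16 Schwann cells carrying the Pmp22-F2sN reporter, seeded in 1536-well format, were exposed to library compounds for 24 h at 37C. Viability was read as CellTiter-Glo luminescence after 15 min at room temperature.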
With `COc1ccc(-c2[nH]c(-c3ccc(O)cc3)nc2-c2ccccc2)cc1`, the “activity change, negative = cytotoxicity” value was inactive: 13.3%. Under `Cc1ccc(Cn2c(SCC(=O)NCc3ccccc3)nc3ccsc3c2=O)cc1` stands inactive: 2.79%. On to `Cc1ccccc1-c1noc(-c2ccc(NCC3CCCO3)c([N+](=O)[O-])c2)n1` (configuration not stated), for which the “activity change, negative = cytotoxicity” value was inactive: 8.5%. For the compound `O=c1cc(COc2ccc(Cl)cc2Cl)nc2scc(-c3ccccc3)n12`, the “activity change, negative = cytotoxicity” value was inactive: 0.682%. For `COc1ccccc1OCC(=O)N(Cc1ccco1)Cc1ccccc1F`, the “activity change, negative = cytotoxicity” value is inactive: -5.03%. For `CCOc1ccc(CC(=O)NC2CC(=O)N(c3cccc(F)c3)C2)cc1` (configuration not stated), the “activity change, negative = cytotoxicity” value is inactive: 9.28%.

On to `CC(CNC(=O)c1ccc2c(c1)nc1n2CCCCC1)c1ccccc1` (configuration not stated), for which the “activity change, negative = cytotoxicity” value was inactive: 14%. Consider `COc1ccc(N(Cc2cccs2)C(=O)c2ccco2)cc1`, for which the “activity change, negative = cytotoxicity” value was inactive: -1.67%.

As for `CCCCC(=O)Nc1nnc(S(=O)(=O)N(C)Cc2ccc(Cl)cc2)s1`, the “activity change, negative = cytotoxicity” value was inactive: 4.77%.

For the compound `COCCCNc1nc2c(c(=O)n(Cc3ccc(F)cc3)c(=O)n2C)n1C`, the “activity change, negative = cytotoxicity” value was inactive: 1.92%.

On to `Cc1cc(C)cc(NC(=O)CCc2c(C)nc3nc(CNC(=O)c4cccc(F)c4)nn3c2C)c1`, for which the “activity change, negative = cytotoxicity” value was inactive: 9.35%.

Regarding `CCS(=O)(=O)N1CCc2cc(C(=O)Nc3ccc(Br)cc3F)ccc21`, the “activity change, negative = cytotoxicity” value was inactive: -10.3%.

In the case of `Cc1ccc(-n2c(=O)c3c(c4cc(C)ccc4n3C)n(CC(=O)Nc3ccc(F)cc3)c2=O)cc1`, the “activity change, negative = cytotoxicity” value is inactive: 21.7%. The same measure for `CC(=O)c1ccc(N2CCN(C(=O)c3cn(C)c(=O)c4c3c3ccccc3n4C)CC2)cc1`: inactive: 13.1%; for `COc1ccc(CNC(=O)COCc2cc(-c3ccc4c(c3)OCO4)on2)cc1`: inactive: 8.18%. The same measure for `CCc1cccc(C)c1NC(=O)c1ccc2c(c1)CCN2S(=O)(=O)c1ccc(Cl)cc1`: inactive: -0.531%. Under `Cc1ccc(S(=O)(=O)N2CC=C(c3c(C)n(CC(=O)N4CCCC4)c4ccccc34)CC2)cc1C` stands inactive: -11.8%; under `COc1cc(OC)cc(C(=O)NCCc2csc3nc(-c4ccccc4F)nn23)c1`, inactive: 10.6%. `Cc1sc(-n2cccc2)c(C(C)NC(=O)Nc2cccc(C(F)(F)F)c2)c1C` (configuration not stated): the “activity change, negative = cytotoxicity” value was inactive: -5.54%. On to `CCc1ccc(NC(=O)c2nc3nc(C)cc(C(F)F)n3n2)cc1`, for which the “activity change, negative = cytotoxicity” value is inactive: 6.86%. Under `Cc1nc(N2CCOCC2)c2c(C(=O)NCc3ccc(Cl)cc3)c(C)oc2n1` stands inactive: -6.41%; under `Cc1ccc(OCCSc2nc3ccc(NC(=O)c4cccs4)cc3s2)cc1`, inactive: -1.18%. The same measure for `CN(C)S(=O)(=O)N(CC(=O)Nc1ccc(C(F)(F)F)cc1)c1ccccc1`: inactive: 10.5%.

For the compound `COc1ccc(CNC(=O)c2ccc3c(c2)N(Cc2cc(C)ccc2C)C(=O)CS3)cc1`, the “activity change, negative = cytotoxicity” value was inactive: 14.3%.

For `COc1ccccc1CNS(=O)(=O)c1cc(Br)cc2c1N(C(=O)C1CC1)CC2`, the “activity change, negative = cytotoxicity” value is inactive: 10.2%. For `COc1ccc(CNc2nc(-c3ccc(Cl)cc3)nn2S(=O)(=O)c2ccc(C)cc2)cc1`, the “activity change, negative = cytotoxicity” value is inactive: 15.9%.

In the case of `COc1cccc(CNC(=O)c2cc(-c3ccc(Cl)cc3)n[nH]2)c1`, the “activity change, negative = cytotoxicity” value was inactive: 5.84%.

These data come from PubChem BioAssay AID1508642 (National Center for Advancing Translational Sciences (NCATS), 2021).
